Assay results published in PubChem BioAssay AID2147 (National Center for Advancing Translational Sciences (NCATS), 2009).
The campaign covered roughly 230,000 compounds. About 3,600 (1.6%) were called active. This list was built around the results that the source calls inconclusive (neither active nor inactive); the mix of calls is not that of the screen. Calls follow the shape of the dose curve; as a rule, active = well fitted inhibition curve with a large enough effect (not every such curve was filed as active); inconclusive = small, poorly fitted or top-dose-only effect, or another doubt; inactive = no such curve, though single readings can be large or run the other way. Potencies of inconclusive entries are doubtful fits and often do not repeat.

Target: Lysine-specific demethylase 4E (Homo sapiens) (UniProt B2RXH2)
Sequence of UniProt B2RXH2 (B2RXH2 whole entry, looked up, the tested form may be a part): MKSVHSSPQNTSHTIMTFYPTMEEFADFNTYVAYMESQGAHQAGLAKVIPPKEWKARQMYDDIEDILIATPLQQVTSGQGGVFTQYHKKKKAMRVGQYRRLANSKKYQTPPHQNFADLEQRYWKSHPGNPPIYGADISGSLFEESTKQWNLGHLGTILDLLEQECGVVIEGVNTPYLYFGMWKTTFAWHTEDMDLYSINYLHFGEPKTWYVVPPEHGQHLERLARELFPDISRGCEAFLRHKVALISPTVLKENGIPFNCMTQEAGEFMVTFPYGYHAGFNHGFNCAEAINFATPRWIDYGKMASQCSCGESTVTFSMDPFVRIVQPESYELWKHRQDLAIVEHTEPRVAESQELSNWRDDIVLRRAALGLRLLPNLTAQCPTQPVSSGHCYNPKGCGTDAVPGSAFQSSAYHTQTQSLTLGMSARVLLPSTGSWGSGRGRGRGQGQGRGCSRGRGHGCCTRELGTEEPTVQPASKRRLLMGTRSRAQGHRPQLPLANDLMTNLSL
Assay: qHTS Assay for Inhibitors of Human Jumonji Domain Containing 2E (JMJD2E)
Settings: JMJD2E catalytic domain, FDH-coupled NADH fluorescence (FDH is formaldehyde dehydrogenase); series mostly up to 57.1 µM
Also: nearly all actives have a fitted effect of over 50% in size.
Potency is read from the fitted curve at half-maximal effect; tags tell the direction and shape of the fitted curve.

Structure (SMILES) | Potency
O=C(C1CCN(S(=O)(=O)c2cccnc2)CC1)N1CCCCC1 | inactive
Cc1ccc(C(=O)CSc2n[nH]c(C)n2)cc1 | inconclusive: 35.5 µM [inhibitor, single point]
Cn1c(=O)c(-c2ccccc2)nc2ccccc21 | inconclusive: 31.6 µM [inhibitor, partial curve]
C=CCC1(CC=C)CCCN1Cc1nc(COc2ccccc2)no1 | inactive
O=C(CSc1nnc(Cc2cccs2)n1Cc1ccco1)Nc1ccc(Br)cc1 | inactive
COC(=O)c1ccccc1NC(=O)NCc1ccc2c(c1)OCO2 | inconclusive: 39.8 µM [inhibitor, single point]
CC(C)(C)n1ncc(Oc2ccccc2[N+](=O)[O-])c(Cl)c1=O | inactive
COc1ccc(-c2[nH]ncc2CN(C)Cc2cc(C)[nH]n2)c(F)c1 | inconclusive: 39.8 µM [inhibitor, single point]
Cc1cc(NC(=O)c2ccc(-c3ccccc3F)o2)no1 | inconclusive: 39.8 µM [inhibitor, single point]
O=C(c1ccc(Cl)cc1)c1ccc(CN2C(=O)c3ccccc3C2=O)o1 | inactive
COc1ccc(COc2cc(-c3cccc(OC)c3)nc3ccc(NC(=O)c4ccc(C)cc4)cc23)cc1 | inconclusive: 22.4 µM [inhibitor, partial curve]
CCOC(=O)C1CCN(CC(=O)N(CC(C)C)c2c(N)n(CC(C)C)c(=O)[nH]c2=O)CC1 | inconclusive: 31.6 µM [inhibitor, single point]
CCOc1ccc(N(Cc2cc3cc(OC)ccc3[nH]c2=O)C(=O)C2CCCO2)cc1 (configuration not stated) | inconclusive: 25.1 µM [inhibitor, partial curve]
COc1ccc(/C=C/c2cc(C(=O)O)c3ccccc3n2)cc1 | inconclusive: 28.2 µM [inhibitor, partial curve]
CC1(C)Cc2c(C#N)c(NCC3CCCO3)nc(-c3ccco3)c2CO1 (configuration not stated) | inconclusive: 31.6 µM [inhibitor, partial curve]
CS(=O)(=O)N(Cc1ccc(Cl)cc1)c1ccc(C(=O)N/N=C/c2cc3ccccc3nc2Cl)cc1 | inconclusive: 20 µM [inhibitor, partial curve]
COc1ccc(-c2cn3cccnc3n2)cc1NC(=O)CC(C)C | inconclusive: 28.2 µM [inhibitor, partial curve]
CCn1c(C(C)NC(=O)c2cccc(C)c2)n[nH]c1=S (configuration not stated) | inconclusive: 5.01 µM [inhibitor, full curve]
CCN(CC)S(=O)(=O)c1ccc(Nc2nc3ccccc3n3nnnc23)cc1 | inconclusive: 31.6 µM [inhibitor, single point]
[O-][n+]1cccc2ncc3cscc3c21 | inconclusive: 28.2 µM [inhibitor, single point]
COC(=O)C1=CN(Cc2cccs2)C=C(C(=O)OC)C1c1ccc(OC)cc1OC | inconclusive: 28.2 µM [inhibitor, partial curve]
S=C(NCc1ccco1)Nc1ccc(Cl)cc1Cl | inactive
CCCCCC1=C2CNC(Cc3ccccc3)(C(=O)OC)C=C2C(C)C1=O (configuration not stated) | inconclusive: 28.2 µM [inhibitor, single point]

Structure (SMILES) | Potency
c1ccc2c(C[n+]3csc4ccccc43)cccc2c1 | inconclusive: 39.8 µM [inhibitor, single point]
COc1ccc(Oc2cc(Cl)nc(N)n2)cc1 | inactive
CC(=O)c1c(C)[nH]c(C(=O)CSc2nc3ccccc3c(=O)n2CCCO)c1C | inconclusive: 28.2 µM [inhibitor, single point]
CCn1cc(C(=O)N[C@H](C)c2ccccc2)c(=O)c2cc(F)c(N3CCN(C)CC3)cc21 | inconclusive: 28.2 µM [inhibitor, partial curve]
Cc1ccc(-c2nc(CN(C)Cc3cccc4cnccc34)c(C)o2)s1 | inconclusive: 39.8 µM [inhibitor, single point]
COc1ccc2[nH]c(=O)c(CN(Cc3ccco3)Cc3nnnn3Cc3ccccc3)cc2c1 | inconclusive: 14.1 µM [inhibitor, partial curve]
S=C(NCc1ccco1)Nc1cc(-c2ccccc2)[nH]n1 | inactive
CC(C)OC(=O)c1cn(-c2ccccc2)nc1-c1ccc2c(c1)OCCO2 | inconclusive: 28.2 µM [inhibitor, single point]
CCN(Cc1ccccc1)C(=O)c1cc2c(=O)oc3ccc(C)cc3c2s1 | inconclusive: 10 µM [inhibitor, partial curve]
CC(C)c1ccc(N2CCN(C(=O)c3ccccc3NC(=O)/C=C\C(=O)O)CC2)cc1 | inconclusive: 31.6 µM [inhibitor, partial curve]
CCN(CC)Cc1c(O)ccc2c(C)c(CC(=O)OC)c(=O)oc12 | inconclusive: 14.1 µM [inhibitor, partial curve]
Cn1c(=O)n(C)c2cc(CNc3ccc(N4CCOCC4)c(C(=O)O)c3)ccc21 | inconclusive: 39.8 µM [inhibitor, single point]
Cc1ccc(N2CCN(c3ccc(NC(=O)CCC(=O)O)cc3)CC2)cc1 | inactive
CC(C)(C)C(=O)c1cn(CC(=O)O)c2ccccc12 | inconclusive: 31.6 µM [inhibitor, partial curve]
O=c1c2cc(Br)ccc2nc(-c2cccc(C(F)(F)F)c2)n1O | inconclusive: 35.5 µM [inhibitor, single point]
COc1cccc(CNc2ccc(N3CCCCC3)cc2)c1OC | active: 11.2 µM
COc1ccc(-c2ccc([C@H]3[C@H]4C=CC[C@@H](C)[C@@H]4C(=O)N3Cc3ccccc3)c(F)c2)cc1OC | inconclusive: 35.5 µM [inhibitor, single point]
Cc1ccc(C)c(S(=O)(=O)ON2C(=O)c3ccccc3C2=O)c1 | inconclusive: 31.6 µM [inhibitor, partial curve]
COc1ccc(S(=O)(=O)N(n2c(C)nnc2-n2nc(C)cc2C)S(=O)(=O)c2ccc(OC)cc2)cc1 | inactive
COc1cc(NC(=O)CSc2nc3ccccc3cc2C)c(C(=O)O)cc1OC | inconclusive: 17.8 µM [inhibitor, partial curve]
CCOC(=O)Cc1csc(NC(=O)c2cc(=O)c3ccccc3o2)n1 | inactive
CS(=O)(=O)c1ccccc1-c1nnc(-c2ccc(Cl)cc2)o1 | inconclusive: 28.2 µM [inhibitor, partial curve]
CNC(=S)N(Cc1cccs1)Cc1cc2cc(OC)c(OC)cc2[nH]c1=O | inconclusive: 28.2 µM [inhibitor, partial curve]

Structure (SMILES) | Potency
CCOC(=O)CCc1c(C)c2ccc(OCc3nn[nH]n3)c(C)c2oc1=O | inconclusive: 31.6 µM [inhibitor, partial curve]
Cc1ccc(OCC(=O)N2CCN(C(=O)c3ccc([N+](=O)[O-])cc3)CC2)cc1 | inconclusive: 28.2 µM [inhibitor, single point]
Cc1cccc(N2CCN(C(=O)c3ccncc3)CC2)c1C | inactive
O=c1cc(C(F)(F)F)[nH]c2c(C(F)(F)F)cccc12 | inconclusive: 28.2 µM [inhibitor, partial curve]
COC(=O)CNc1ccc2c(c1)OCO2 | inconclusive: 39.8 µM [inhibitor, single point]
c1ccc(Nc2cccc3c(Nc4ccccc4)cccc23)cc1 | inconclusive: 25.1 µM [inhibitor, partial curve]
O=P(C1=C(N2CCOCC2)/C(=C\c2ccccc2)CC1)(N1CCOCC1)N1CCOCC1 | inconclusive: 35.5 µM [inhibitor, single point]
Cc1c(Cl)cccc1NC(=S)NNc1ncc(C(F)(F)F)cc1Cl | inactive
O=C1CN(C(=O)c2cc3ccccc3oc2=O)C(c2ccc(F)cc2)c2cc(Br)ccc2N1 (configuration not stated) | inconclusive: 28.2 µM [inhibitor, single point]
Cc1ccc2c(c1)sc[n+]2Cc1ccccc1 | inconclusive: 35.5 µM [inhibitor, single point]
Cc1cc(C)c2c(N)c(C(=O)NC3CCCC3)sc2n1 | inconclusive: 25.1 µM [inhibitor, partial curve]
CCOc1cc(CNc2ccccc2SC)ccc1O | inconclusive: 35.5 µM [inhibitor, single point]
N#CC1=C2Nc3ccccc3N2C(=O)NC1(c1ccccc1)C(F)(F)F (configuration not stated) | inconclusive: 35.5 µM [inhibitor, single point]
Cc1cc(NS(=O)(=O)c2ccc(Nc3nc(-c4sc(NC(=O)c5ccccc5)nc4C)cs3)cc2)no1 | inconclusive: 31.6 µM [inhibitor, partial curve]
CCn1c(NCCO)nc2c(c1=O)C(C)(CC)Cc1ccccc1-2 (configuration not stated) | inconclusive: 28.2 µM [inhibitor, partial curve]
CC(C(=O)O)c1ccc(C(=O)c2cccs2)cc1 (configuration not stated) | inconclusive: 35.5 µM [inhibitor, single point]
Brc1ccc(CN2CCN(c3ccccn3)CC2)s1 | inconclusive: 39.8 µM [inhibitor, single point]
O=C1C(Cc2ccccc2)S/C(=N/N=C/c2ccco2)N1c1ccccc1 (configuration not stated) | inconclusive: 39.8 µM [inhibitor, single point]
NC(=S)N/N=C/c1ccccc1[N+](=O)[O-] | inactive
Cc1ccc(OCCCOc2cccc3cccnc23)cc1C | inconclusive: 22.4 µM [inhibitor, single point]
O/N=C1/CCCCC1c1ccccn1 (configuration not stated) | inconclusive: 39.8 µM [inhibitor, single point]
